ChEMBL document CHEMBL4888484, “Replenishing the malaria drug discovery pipeline: Screening and hit evaluation of the MMV Hit Generation Library 1 (HGL1) against asexual blood stage Plasmodium falciparum ,using a nano luciferase reporter read-out” (2022)
Screen size: about 150,000 compounds; about 540 (0.36%) showed an effect of 50% or more. Some of the results follow.

system: Plasmodium falciparum; assay: Primary screen in NF54 nanoGlo assay, in single point, at 2uM, 72h; a lower Z score goes with more inhibition; type: functional, Erythrocyte; conditions: timepoint 72 hour

Compound	% Inhibition	Z score
Cc1ccsc1CN(C)c1cc([C@H]2CCCNC2)ncn1	-4%	0.56
CN(Cc1ccc(F)cc1)c1ncnc(Oc2ccc(F)cc2F)c1N	-4%	0.63
Cc1n[nH]c(C2CC2)c1C(=O)NCCCN1C[C@@H](C)O[C@@H](C)C1	-9%	0.89
Cc1cnc2c(C(=O)N(C)[C@@H](C)Cc3ncccc3C)cnn2c1	-4%	0.42
COc1ccc(CCC(=O)N2CCN=C2N2CCN(C)CC2)cc1	-2%	0.39
O=C(CCCc1ccc(O)c(F)c1)N1CC2(CCOC2)C1	-3%	0.37
c1ncc(-c2cn(Cc3ccoc3)nn2)cn1	-5%	0.83
Cc1ncc(S(N)(=O)=O)cc1C(=O)N(C)CCn1cccn1	-7%	0.88
Cc1nc(C)c(Cn2cc(COCc3ccccc3)nn2)s1	-11%	1.96
O=C(Cc1noc2ccccc12)N1CCN(C(=O)c2cnn3ccccc23)CC1	-11%	1.77
COc1ccc(-c2ccnc3cc(C(=O)Nc4cc(C)cc(C)c4)nn23)cc1OC	0%	-0.03
Cc1[nH]c(-c2ccc(F)cc2)cc1C(=O)N1CCN(C2CCCCC2)CC1	-1%	0.23
Cc1nccn1CCCC(=O)N[C@H](C#N)c1cnn(-c2ccccc2)c1	-12%	1.71
O=C(Nc1cnn([C@H]2CCOC2)c1)c1cnccn1	18%	-2.32
Cc1ccccc1CC(=O)N[C@H]1CCCCNC1=O	0%	0.03
COCCN(CCOC)CC[C@@H]1CC[C@H](O)[C@@H](C(=O)N(C)Cc2ccccc2)O1	-7%	1.06
Cc1nc(-c2ccccc2)sc1NC(=O)Nc1cnn(C)c1	-8%	0.81
COC1CCC(N(C)C(=O)C2CC(=O)NC(C)C2)CC1 (configuration not stated)	-4%	0.51
Cc1n[nH]c(C)c1C(=O)N1CCC[C@@]2(C=Cc3ccccc3O2)CC1	-6%	1.28
COc1cccc(-c2nccn2-c2ccc3cn[nH]c3c2)c1OC	5%	-0.61
O=c1n(Cc2ccc(F)c(F)c2)nc(C2CCNCC2)n1Cc1ccccc1	-1%	0.08
CC(C)n1cnc(C(=O)N2CCN(Cc3ccccc3Cl)CC2)c1	-6%	1.2

Compound	% Inhibition	Z score
Cc1noc(C)c1CCCNC(=O)c1ccc(N2CCC[C@@H]2CO)nc1	4%	-0.82
CC[C@@H](CO)N(Cc1ccc(C)s1)C(=O)c1csc(CN(C)C)n1	-5%	0.71
O=C1CC[C@H](NCc2ccc(OC(F)F)c(F)c2)C2(CCC2)N1	-8%	0.68
CNC(=O)C[C@H](C)NCc1coc2ccccc12	-6%	0.7
Cc1nc(C2CC2)oc1C(=O)N1CCCC1CC(O)c1cccs1 (configuration not stated)	-5%	0.72
CO[C@@H](c1ccccc1)c1nc(-c2c(C)ncc3c2CCNC3)no1	-7%	0.97
N#Cc1ccc(C(=O)NCc2ccc(-c3nc(C4CC4)no3)s2)c(F)c1	-4%	0.75
Cn1cccc1[C@H](CNC(=O)c1ccc2c(c1)OCO2)N1CCOCC1	-7%	1.21
Cc1sc(NC(=O)COc2ccc3ccccc3c2)nc1-c1ccccc1	-10%	1.66
N#Cc1nccnc1O[C@H]1CCCN(C(=O)Nc2cccs2)C1	-15%	2.51
O=C(NC(c1ccccc1)c1ccccc1)c1cc(COc2c(F)cccc2F)on1	-1%	0.13
O=C(Nc1nc(C(=O)N2CCCCC2)cs1)c1ccc(Cl)c(Cl)c1	-12%	1.69
CN(Cc1cscn1)C(=O)[C@H]1CC12CCN(CC(c1ccccc1)c1ccccc1)CC2	-1%	0.25
CC(C)c1nc(C2(NCc3nnc(C(C)C)o3)CCCC2)no1	-7%	0.87
Cc1ccc2nc(CN3Cc4ncccc4C3=O)cn2c1	-12%	1.71
C=CCN(C)C(=O)c1cc(F)ccc1F	-3%	0.27
COCCc1noc(C[C@H]2CCOC3(CCN(C(=O)Cc4cccc(OC)c4)CC3)C2)n1	0%	-0.01
CN(C)S(=O)(=O)N(CC#N)Cc1ccc(C(F)F)cc1	-6%	1.1
COc1cccc(CN2C(=O)c3cc4oc(C)cc4n3C[C@@]2(C)C(=O)NC2CCCCCCC2)c1	-9%	1.71
C#CCN(CC#N)C(=O)[C@H]1CCCN(C(=O)NC2CCCC2)C1	-19%	1.93
Cc1nc(C)c(S(=O)(=O)NCc2nc3c([nH]2)CCCC3)s1	-6%	0.77
COCCNCCOc1ccc(Br)cc1Cl	-8%	1.08

Compound	% Inhibition	Z score
CCCS(=O)(=O)NC(=O)CCC1CCCC1	-11%	1.66
NC(=O)C1CCN(C(=O)c2ccc3c(c2)CCC3)CC1	-14%	1.64
COC(=O)CN(C(C)C)S(=O)(=O)c1cc(Cl)cc(Cl)c1	33%	-1.13
CC(C)CN(CC(=O)N(CCc1c[nH]c2ccccc12)Cc1ccc(Cl)cc1)Cc1ccc(Cl)cc1	-8%	1.43
O=C(NCc1cccnc1-c1ccco1)c1ccc(S(=O)(=O)N2CCOCC2)cc1	-4%	0.72
CN1CCCC[C@@H]1CCn1ncc(N2CCc3ccccc3C2)cc1=O	-32%	2.82
CC(C)C[C@@H]1N=C(O)N(CCCn2ccnc2)C1=O	-18%	1.59
O=C1NC2C(NC(=O)N2C2CCCCC2)N1C1CCCCC1 (configuration not stated)	5%	-0.61
Cc1c(S(=O)(=O)N2CCC[C@H](C(=O)N3CCCC3)C2)cnn1C	0%	-0.03
COc1cc(C(=O)Nc2ccc(CN(C)C)c(Cl)c2)sn1	3%	-0.58
O=C(NCCNc1cc(Nc2ccccn2)ncn1)Nc1ccccc1	-3%	0.62
Cc1ccc(C)c(-n2cnc(=O)n2Cc2nnc3n2CCOC3)c1	-12%	2.31
O=C(O)CN(C(=O)C1CC1c1cc(Cl)cc(Cl)c1)C1CCOCC1 (configuration not stated)	2%	-0.21
Cc1cc(S(=O)(=O)Nc2ccccc2C(=O)Nc2ccc3c(c2)OCCO3)c(C)s1	-10%	0.87
O=C(c1ccon1)N1CCC(c2ncc(C(F)(F)F)[nH]2)CC1	-6%	0.75
Cc1ccc2[nH]c(C(=O)N3CCC4(CC3)CNC(=O)C4)nc2c1	-4%	0.63
C[C@H]1CCC(=O)N1c1ccc(NC(=O)c2cc(=O)nc3sccn23)cc1	-11%	2.06
CC(=O)OCC1OC(n2ccc(=O)[nH]c2=O)CC1OC(C)=O (configuration not stated)	-5%	0.59
CCC(CC)C(=O)Nc1ccc(Br)c(C)c1	0%	0.06
O=C(NC1CCCCC1)c1cc2c(s1)CCN(C(=O)c1ccc(F)cc1)C2	-12%	1.98
Cc1nc(C(=O)N2CCN(c3cc(C(F)(F)F)ncn3)CC2)cs1	-23%	2.89
Cc1cc(O[C@H]2CCN(C(=O)C3c4ccccc4Oc4ccccc43)C2)nc(C)n1	7%	-1.06

Compound	% Inhibition	Z score
COc1ccc(CC(=O)N[C@H](C)c2onc(-c3ccc(F)cc3)c2C(=O)O)cc1	14%	-1.68
C[C@H](Oc1ccc(Br)cc1F)c1ncc(Br)cn1	-21%	4.04
CCc1nc(CN(C)CC(=O)N2CCCC2)cs1	-5%	0.94
COc1ccc2c(c1OC)O[C@@](C)(CCC(=O)N1CCCC1)CC2=O	1%	-0.11
Cc1c(C#N)c(NC(=O)CN2C[C@@H](C(N)=O)Oc3ccccc32)n(Cc2ccco2)c1C	-12%	1.33
Cc1noc(C(C)NC(=O)NC2CCN(C)C2c2ccccc2)n1 (configuration not stated)	3%	-0.5
O[C@@H](CNCc1c[nH]nc1-c1cccs1)c1ccc(F)cc1	-7%	1.47
Cc1ccc[n+](Cc2ccc3ccccc3n2)c1	59%	-7.89
O=C(N[C@H]1CCCOCC1)c1ccc2c(c1)OCO2	-5%	0.95
COc1ccc(C(C)NC2CCc3nc(C)cn3C2)cc1C (configuration not stated)	-2%	0.26
CN(C)CCN(Cc1ccccc1)C(=O)[C@@H]1CCCCc2nnc(-c3ccccc3)n21	-6%	0.87
Cc1cc([C@@H](O)CCNC(=O)C(=O)NCCc2ccccc2)c(C)o1	-15%	1.91
CC(C)NC(=O)N(C)CCc1cnccn1	2%	-0.33
OCCOc1ccccc1CN1CCC[C@@](CO)(CCCc2ccccc2)C1	-8%	0.99
CCc1cccnc1-c1noc(C(C)(C)C#N)n1	6%	-1.13
COc1nscc1CN(C)c1cc(C)nc2ncnn12	-1%	0.23
CCC(C)C(C)(O)CNC(=O)c1ccc(O)c(Cl)c1 (configuration not stated)	-6%	0.93
CCOC(=O)c1ncn(CC(=O)OC)c1N	-5%	0.63
COc1ccc(C(=O)NC2CC2)c(OC2CCN(CCCc3ccccc3)CC2)c1	-21%	1.97
Cc1cccnc1C[C@H](C)NC(=O)c1cnn[nH]1	4%	-0.36
